# Reference: PubChem BioAssay AID1159614 (National Center for Advancing Translational Sciences (NCATS), 2016)
# Among all 45,000 compounds or so, about 65 (0.1%) were called active. Calls follow the shape of the dose curve; as a rule, active = well fitted activation curve with a large enough effect; inconclusive = small, poorly fitted or top-dose-only effect; inactive = no such curve, though single readings can be large or run the other way. This is one part of the list.
# Molecular target: Galactocerebrosidase (Homo sapiens) (UniProt P54803)
# Sequence of UniProt P54803 (P54803 whole entry, looked up): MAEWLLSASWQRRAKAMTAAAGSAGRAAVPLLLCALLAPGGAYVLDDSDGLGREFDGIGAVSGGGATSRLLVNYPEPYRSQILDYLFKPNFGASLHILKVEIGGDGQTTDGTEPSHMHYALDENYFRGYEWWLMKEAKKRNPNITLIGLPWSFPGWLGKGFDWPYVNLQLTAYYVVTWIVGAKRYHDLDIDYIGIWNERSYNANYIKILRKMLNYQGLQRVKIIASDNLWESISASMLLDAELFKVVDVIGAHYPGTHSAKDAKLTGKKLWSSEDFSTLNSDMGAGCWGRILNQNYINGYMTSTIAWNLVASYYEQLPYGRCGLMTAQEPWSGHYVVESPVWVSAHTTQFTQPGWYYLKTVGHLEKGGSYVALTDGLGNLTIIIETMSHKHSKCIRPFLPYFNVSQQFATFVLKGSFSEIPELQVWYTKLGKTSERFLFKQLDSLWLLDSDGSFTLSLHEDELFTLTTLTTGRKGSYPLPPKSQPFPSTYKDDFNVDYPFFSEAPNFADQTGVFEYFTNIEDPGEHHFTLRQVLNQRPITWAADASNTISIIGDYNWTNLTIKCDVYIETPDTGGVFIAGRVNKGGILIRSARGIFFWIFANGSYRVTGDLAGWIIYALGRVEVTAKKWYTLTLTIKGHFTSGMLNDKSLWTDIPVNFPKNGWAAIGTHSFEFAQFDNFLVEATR
# Experiment: A Novel Cell-Based Assay to Identify Small Molecules for B -Galactocerebrosidase; also: 0% is about no effect; nearly all actives have a fitted effect of over 65% in size
# Details: 145M-Twi-hGALC-G270D cells (Twitcher mouse brain line with human GALC G270D), HMU-beta-Gal fluorescence, 48 h; series mostly up to 57.5 µM; activation: at the top concentration
# In short: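 Live 145M-Twi cells (Twitcher mouse brain-derived, GALC-null) stably expressing human GALC-G270D, with a wild-type GALC line, were compound-treated. Residual GALC activity was then read as fluorescence from 0.1 mM final HMU-β-gal at pH 5.2; higher signal means activation.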
row,SMILES,activation
1,CCOC(=O)c1ccc(NC(=O)CN(c2ccc(C)cc2)S(=O)(=O)c2ccc(OC)cc2)cc1,inactive: -16.2%
2,CCC(=O)Nc1nnc(S(=O)(=O)N(C)Cc2ccc(Cl)cc2)s1,inactive: -6.94%
3,CCC(Sc1nc2cc(OC)c(OC)cc2c(=O)n1Cc1ccc(Cl)cc1)C(=O)NCCOC (stereo not drawn),inactive: -11.2%
4,CCC(CC)C(=O)Nc1c(C(=O)N2CCN(c3ccccc3F)CC2)oc2ccccc12,inactive: -36.4%
5,Cc1cc(NC(=O)c2cccnc2)cc(-c2nc3cc(Cl)ccc3o2)c1O,inactive: -9.97%
6,COc1ccc(CCNC(=O)CN(c2ccc(C)cc2)S(=O)(=O)c2ccc(OC)cc2)cc1,inactive: -14%
7,COc1ccc(N2CCN(CCCNC(=O)Nc3ccccc3Cl)CC2)cc1,inactive: -11.7%
8,CCOc1ccc(-c2nc3c(c(SCC(=O)N4CCCCC4)n2)Cc2cc(C)ccc2O3)cc1,inactive: -21%
9,CCOc1ccc(CN2C(=O)c3ccccc3Sc3ccc(C(=O)N4CCN(C)CC4)cc32)cc1,inactive: -6.63%
10,O=C(NC1CC(=O)N(c2ccccc2)C1)c1ccc(S(=O)(=O)N2CCOCC2)cc1 (stereo not drawn),inactive: -6.78%
11,Brc1ccc(-c2ccc(CNCCSc3nnnn3-c3ccccc3)o2)cc1,inactive: -9.86%
12,CCOc1ccc(-n2nc(CO)c(C(=O)NCc3ccc(Cl)cc3)n2)cc1,inactive: -8.04%
13,COc1ccc(Br)c2c1-c1nc(NC(=O)c3cccc(C)c3)sc1C2,inactive: 5.24%
14,Cc1ccc(-c2nnc(SCCOc3ccccc3)o2)cc1,inactive: -11.1%
15,CC1CCN(C(=O)CSc2c3c(nc4cc(Cl)ccc24)CCCC3)CC1,inactive: -6.87%
16,COc1ccc(OC)c(NC(=O)CSc2n[nH]c(-c3ccccc3Cl)n2)c1,inactive: -9.92%
17,c1ccc(-c2cn(-c3ccccc3)c3ncnc(N4CCN(c5ccccc5)CC4)c23)cc1,inactive: -11.7%
18,CCOC(=O)CC(NC(=O)c1cc2cc(Cl)ccc2oc1=O)c1ccc(C)cc1 (stereo not drawn),inactive: -0.931%
19,Cc1cc(C)cc(Oc2c(C(F)(F)F)oc3c(CN4CCCC(C)C4)c(O)ccc3c2=O)c1 (stereo not drawn),inactive: -8.5%
20,COc1ccccc1N1CCN(c2ccc3cc(S(=O)(=O)N4CCCCC4)ccc3n2)CC1,inactive: -13.8%
21,CCC(=O)Nc1sc2c(c1C(=O)Nc1ccc(OC)cc1)CCC(C(C)(C)C)C2 (stereo not drawn),inactive: 0.624%
22,CCc1ccc(NC(=O)C2CCN(c3nnc(-n4c(C)ccc4C)s3)CC2)cc1,inactive: -10.6%
23,CCOc1ccc(-c2cn(-c3ccc(OC)cc3)c(SCC(=O)Nc3ccccc3Cl)n2)cc1,inactive: -11.7%
24,COc1ccc(F)cc1S(=O)(=O)NCCc1csc(-c2ccc(Cl)cc2)n1,inactive: -10.8%

row,SMILES,activation
1,CC(=O)c1ccc(NC(=O)CSc2cn(CC(=O)N3CCCCC3)c3ccccc23)cc1,inactive: -9.93%
2,CCCC(=O)NCCc1nc2ccccc2n1Cc1c(F)cccc1Cl,inactive: -12.8%
3,Cc1ccc(C)c(-n2nnc(-c3nc(-c4ccc(Cl)cc4)no3)c2N)c1,inactive: -18.3%
4,O=C(Nc1ccc(S(=O)(=O)N2CCC(c3nc4ccccc4s3)CC2)cc1)c1ccc(F)cc1,inactive: -3.81%
5,Cc1cc(C)c(S(=O)(=O)NCCc2cc3c(C)ccc(C)c3[nH]c2=O)c(C)c1,inactive: -14%
6,Cc1ccc(NC(=O)C2Cc3ccccc3N2C(=O)c2ccccc2)cc1Cl (stereo not drawn),inactive: -8.55%
7,NNC(=O)c1ccncc1,inactive: -3.09%
8,CN(C(=O)CCCOc1ccc2[nH]c(=O)ccc2c1)C1CCCCC1,inactive: -7.25%
9,N#Cc1ccc(C(=O)Nc2ccc(Cl)c(-c3nc4cc(Cl)ccc4o3)c2)c(F)c1,inactive: -27.9%
10,O=C(NCc1ccc2c(c1)CCN2C(=O)c1ccncc1)c1cccc(Cl)c1,inactive: -13.6%
11,COc1ccc(NC(=O)c2sc3nc(C)c(C(=O)Nc4ccc(C)cc4C)c(-c4ccc(Cl)cc4)c3c2N)cc1,inactive: -5.89%
12,COc1ccc(OC)c(NC(=O)CSC2=Nc3ccccc3C3=NC(CC(=O)NCc4ccco4)C(=O)N23)c1 (stereo not drawn),inactive: -12.7%
13,CCN(C(=O)c1nn(-c2ccc(OC)c(Cl)c2)c(=O)c2c1c1ccccc1n2C)c1cc(OC)ccc1OC,inactive: -16.4%
14,COc1ccc(-c2nc3sc(CCNC(=O)C(=O)Nc4cc(C)cc(C)c4)c(C)n3n2)cc1,inactive: -4.72%
15,Cc1ccc(NC(=O)c2cccc(NC(=O)N3CCSc4ncccc43)c2)cc1Cl,inactive: 1.99%
16,COc1ccc(N2CCN(C(=O)Cn3ncc4c3-c3cc(C)ccc3OC4)CC2)cc1,inactive: -8.34%
17,COc1cc(OC)cc(C(=O)Nc2cc(-c3nc4ccccc4s3)ccc2OC)c1,inactive: -6.3%
18,CCOc1ccc(NC(=O)CN(C)S(=O)(=O)c2ccc3c(c2)c(=O)n(C)c(=O)n3C)cc1,inactive: 10.4%
19,Cc1ccc(C(=O)NCC(c2cccs2)S(=O)(=O)c2cccs2)cc1C (stereo not drawn),inactive: -18.4%
20,Cc1ccc(N2CCN(C(=O)CCc3c(C)nc4ncnn4c3C)CC2)c(C)c1,inactive: -28.9%
21,Cc1ccc(C)c(CN2C(=O)c3ccccc3Sc3ccc(C(=O)NC4CCCC4)cc32)c1,inactive: -11.8%
22,Cc1ccc(-n2ncc(C(=O)N3CCc4ccccc4C3)c2C2CCN(C(=O)OC(C)(C)C)CC2)cc1C,inactive: -1.57%
23,COc1ccc(NC(=O)c2c(C)oc3ccc(O)c(CN4CCCC(C)C4)c23)cc1Cl (stereo not drawn),inactive: -14.8%
24,COc1cccc(CNC(=O)CSc2ncc(S(=O)(=O)c3ccc(C)c(Cl)c3)c(=O)[nH]2)c1,inactive: -17.6%

row,SMILES,activation
1,CCn1cc(C(=O)NCCc2ccc(OC)c(OC)c2)c(=O)c2cc(S(=O)(=O)N3CCc4ccccc4C3)ccc21,inactive: -8.06%
2,COc1ccc(-c2nc(CN3CCC(C(=O)NCCN(CC(C)C)CC(C)C)CC3)c(C)o2)cc1OC,inactive: -8.93%
3,CC(C)(C)C(=O)OCc1cc(=O)n2nc(C3CCCCC3)sc2n1,inactive: -10.5%
4,COc1ccccc1-c1noc(-c2ccc(NCCc3ccccc3)c([N+](=O)[O-])c2)n1,inactive: -7.54%
5,CCS(=O)(=O)c1ncc(Cl)c(C(=O)N(Cc2ccccc2)Cc2ccco2)n1,inactive: -17.6%
6,CCc1ccc(NC(=O)Cn2c(=O)n(Cc3ccccc3)c(=O)c3oc4ccccc4c32)cc1,inactive: -16.7%
7,COc1ccc(NC(=O)CSc2nc3c(c(=O)[nH]2)CN(Cc2ccccc2)CC3)cc1Cl,inactive: -14.1%
8,COc1cccc2cc(-c3nc(Cl)c4c5c(sc4n3)CC(C)CC5)c(=O)oc12 (stereo not drawn),inactive: -1.43%
9,COC(=O)c1ccccc1NC(=O)CN1C(=O)COc2ccccc21,inactive: -0.695%
10,Cc1ncc(CO)c2c1Oc1nc(-c3ccccc3F)nc(SCC(=O)N3CCCCC3)c1C2,inactive: -3.64%
11,CCc1ccc(NC(=O)c2cnn(-c3c(C)cccc3C)c2C2CCNCC2)cc1,inactive: -17.3%
12,CCOc1cc(C(=O)Nc2c(NC)c3ccccc3oc2=O)cc(OCC)c1OCC,inactive: -21.4%
13,Cc1ccc(S(=O)(=O)c2cn(C)c3cc(N4CCCC4)c(F)cc3c2=O)c(C)c1,inactive: -11.9%
14,Cc1ccc(CCNc2nc3ccccc3c3nc(-c4ccccc4)nn23)cc1,inactive: -9.91%
15,Cc1oc(-c2ccc(Cl)cc2)nc1CSc1nnc(C)n2c1cc1sccc12,inactive: -5.98%
16,CCc1cccc(C)c1NC(=O)Nc1csc2c1CCCC2,inactive: -9.42%
17,Cc1ccc(C)c(NC(=O)CSc2nncn3c2cc2sccc23)c1,inactive: -2.75%
18,COc1ccc2sc(N(Cc3cccnc3)C(=O)c3ccco3)nc2c1,inactive: -10.8%
19,O=C1CN(C(=O)c2ccccc2)C(c2ccc(F)cc2)c2cc(Br)ccc2N1 (stereo not drawn),inactive: -7.88%
20,COc1ccc(CN2C(=O)N(c3ccc(F)cc3)C(=O)C2CC(=O)Nc2ccccc2)cc1 (stereo not drawn),inactive: -9.26%
21,CCn1c(=O)cc(OCC(=O)NCc2ccc(F)cc2Cl)c2ccccc21,inactive: 1.91%
22,CCOc1ccc(N2CC(c3nc4ccccc4n3CCC3CCCCC3)CC2=O)cc1 (stereo not drawn),inactive: -17.5%
23,CCCNC(=O)C1CCN(c2cc(C)nc3c(-c4ccc(OC)c(OC)c4)c(C)nn23)CC1,inactive: -9.71%
24,CCOC(=O)c1ccc(N2C(=O)c3[nH]nc(-c4ccc(OC)cc4)c3C2c2ccc(C)cc2)cc1 (stereo not drawn),inactive: -10.7%

row,SMILES,activation
1,COC(=O)c1cc(NC(=O)Cn2ncc3c2-c2ccccc2OC3)cc(C(=O)OC)c1,inactive: 6.23%
2,COc1ccc(-c2noc(-c3ccc(NC4CCCCC4)c([N+](=O)[O-])c3)n2)cc1OC,inactive: -5.85%
3,O=C(NCCc1c[nH]c2ccccc12)Nc1ccccc1C(F)(F)F,inactive: -27%
4,N#Cc1ccccc1CSc1nnc(-c2ccccc2)o1,inactive: -10.2%
5,Cc1ccc(-n2c(=O)c3c(C)c(C)sc3n(CC(=O)c3ccc(Cl)cc3)c2=O)cc1C,inactive: 2.43%
6,COc1cc(Nc2ncnc3onc(-c4ccc(Cl)cc4)c23)cc(OC)c1,inactive: -23.2%
7,COc1cc(C(=O)Nc2ccc(OCc3cc(=O)n4ccc(C)cc4n3)cc2)cc(OC)c1OC,inactive: -15.4%
8,CCCn1c2ccccc2c2cnn(CC(=O)N(CCCOC(C)C)Cc3ccco3)c(=O)c21,inactive: 9.1%
9,Cc1cccc(N2CCN(S(=O)(=O)c3c(C)[nH]c(=O)[nH]c3=O)CC2)c1C,inactive: -1.46%
10,N#Cc1c(C(F)(F)F)cc(-c2cccs2)nc1SCC(=O)Nc1ccc(Cl)cc1,inactive: -14.8%
11,Cc1ccn2c(Nc3ccc4c(c3)OCO4)c(-c3ccco3)nc2c1,inactive: -9.69%
12,COc1ccc(N2CCN(C(CNS(=O)(=O)c3c(C)cc(C)cc3C)c3ccco3)CC2)cc1 (stereo not drawn),inactive: -10.9%
13,COc1ccc2c(C)cc(SCC(=O)Nc3nsc(-c4ccc(C(C)(C)C)cc4)n3)nc2c1,inactive: -23.3%
14,C[C@H]1C[C@H]2[C@@H]3CCC4=CC(=O)C=C[C@]4(C)[C@H]3C(=O)C[C@]2(C)[C@@]1(O)C(=O)CO,inactive: -5.37%
15,COc1cc(NC(=O)CCCSc2nc(-c3ccco3)cc(C(F)(F)F)n2)cc(OC)c1OC,inactive: 3.27%
16,CC1(C)O[C@@H]2C[C@H]3[C@@H]4C[C@H](F)C5=CC(=O)CC[C@]5(C)[C@H]4[C@@H](O)C[C@]3(C)[C@]2(C(=O)CO)O1,inactive: -5.9%
17,CCC(Cc1ccccc1)NC(=O)c1csc2c1CCCCC2 (stereo not drawn),inactive: 16.8%
18,COc1cccc(Cn2c(SCc3ccc(C(=O)N4CCC(C)CC4)cc3)nc3ccncc32)c1,inactive: 2.05%
19,COc1ccc(CNC(=O)CN2CCSc3ccccc32)c(OC)c1,inactive: -13.8%
20,CCN(CC)C(=O)Cn1c(SCC(=O)Nc2ccc(C)c(C)c2)nc2ccccc21,inactive: -7.33%
21,COc1ccccc1NC(=O)C1=C(C)Nc2ncnn2C1c1ccc[nH]1 (stereo not drawn),inactive: -8.35%
